Sequences and labels used below:
B1: tRNA (parent)
chain: CUCUCGGUAGCCAAGUUGGUUUAAGGCGCAAGACUUUAAUUUAUCACUACGAAAUCUUGAGAUCGGGCGUUCGACUCGCCCCCGGGAGAUUUUUUCCUCGAGCAA

Variants at the floor of the assay are shown more often than the library holds them.

Variants of B1 are the subject of this data set. The data set can be described thus: nonsense suppression (GFP-seq) (ratio to wild type); higher = more function; SUP4oc tRNA, yeast GFP reporter sort-seq. A digest of the protocol:
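Yeast were grown in raffinose/galactose medium with 80 mg/L adenine, each strain bearing a genome-integrated ochre-suppressor tRNA variant from a ~3% random-mutation library, a galactose-driven GFP ochre reporter, and RFP. After sorting into GFP/RFP bins, every bin was sequenced on an Illumina platform at phred ≥30. The GFPSEQ value, a measure of nonsense suppression, is the weighted bin median GFP/RFP relative to the unmutated parent tRNA, using each variant's estimated cell share per bin as the weight. Only variants with ≥100 reads and ≥30 cells were included.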
Consider C11G A60C, for which the nonsense suppression was at most 0.026. Regarding G65C G73C, the nonsense suppression is at most 0.026. For G18C C77G G85A, the nonsense suppression is at most 0.026. With A24U U35A, the nonsense suppression is at most 0.026. On to A23C C81U G85A, for which the nonsense suppression was at most 0.026.

As for C56A G59U C81G G86C, the nonsense suppression is at most 0.026.

For U57C G66C C80G A89C, the nonsense suppression is at most 0.026. Regarding C1G U8A C12A G25U A62U A74G, the nonsense suppression is at most 0.026. On to C1U C12U A23U G65A C68U, for which the nonsense suppression is at most 0.026. On to U35A C79A, for which the nonsense suppression is at most 0.026. For C1A G69C, the nonsense suppression was at most 0.026. A31C G84U: the nonsense suppression is at most 0.026. With G78A C79G, the nonsense suppression was 0.0629. With C34U G59C G85C, the nonsense suppression is at most 0.026. On to A30C C72A A74G, for which the nonsense suppression was at most 0.026. Turning to C3A A13C G84C, the nonsense suppression was at most 0.026. Consider G25C A33U A62U, for which the nonsense suppression is at most 0.026.

As for U2C A23U G78C, the nonsense suppression is at most 0.026. On to A23C U35G C81G, for which the nonsense suppression is at most 0.026.

Regarding C29U C83A G84U, the nonsense suppression was at most 0.026. Consider G6C G7C U57C G61C, for which the nonsense suppression is at most 0.026. As to C34A A60C G66U G73A, the nonsense suppression was at most 0.026. Take G25A C64G: the nonsense suppression was at most 0.026. U8A A13U U20A: the nonsense suppression is at most 0.026. With U2G U70G, the nonsense suppression was at most 0.026. As for U17G U21G C29G A89C, the figure is at most 0.026; as for C1U A23U, at most 0.026.

Take U20C A33C: the nonsense suppression is at most 0.026. The value for C5G U57G U71G was at most 0.026. Take C64G G88A: the nonsense suppression is at most 0.026. In the case of U8A A13U U17G G18C U57G A60C, the nonsense suppression is at most 0.026. Turning to G18C U58A A62G, the nonsense suppression was at most 0.026. For the variant U16C C29U A60G, the nonsense suppression was at most 0.026. Consider A74G G88U, for which the nonsense suppression is at most 0.026. As for C3U G10U C11G C29G A30U A62U G67A, the figure is at most 0.026; as for U2A A31C G65A U76G, at most 0.026; as for A14G A31U G66C, at most 0.026. Turning to C80A G88U, the nonsense suppression is at most 0.026. As for A13G U20A, the figure is 0.0339; as for G18A C34A, at most 0.026.

Turning to G6A A14C, the nonsense suppression was at most 0.026.

Take C11G C29G C72G: the nonsense suppression is at most 0.026. Consider C12U, for which the nonsense suppression was 0.773. As to G69A G86C, the nonsense suppression is at most 0.026. Consider A13G A14U A24U G66A, for which the nonsense suppression was at most 0.026. As to U2A C11A U57G G78C, the nonsense suppression was at most 0.026. C12A C29A: the nonsense suppression was at most 0.026.

As to A23G G61C, the nonsense suppression worked out at 0.113.

In the case of U4C U35A C83A, the nonsense suppression was at most 0.026.

U63C C72G C82G: the nonsense suppression was at most 0.026. With A33C C80A A87U, the nonsense suppression was at most 0.026. Turning to U8C G61A C72A, the nonsense suppression was at most 0.026. As for C80A G85U, the figure is at most 0.026. Turning to U4C C34U C72U C77U A89U, the nonsense suppression is at most 0.026. In the case of U63A U70C, the nonsense suppression is at most 0.026.

As for A33U C68G, the nonsense suppression was at most 0.026.

For G61A C77A, the nonsense suppression was at most 0.026.

As to C72A U76A, the nonsense suppression was at most 0.026. As to U2C G59A, the nonsense suppression was at most 0.026.

Turning to U4G A31U C81U, the nonsense suppression is at most 0.026. On to A23C U55A A60G G69U, for which the nonsense suppression was at most 0.026.

Turning to A13U U55C C79U, the nonsense suppression was at most 0.026. As for U55A C83U G85U, the figure is at most 0.026; as for G66A G86C A87C, at most 0.026; as for G10C C79U, at most 0.026. As for A60C C81G, the figure is at most 0.026; as for G25C C27A A33G U35G C81A, at most 0.026; as for U8C C27U A74G, at most 0.026. Take G65C G86U: the nonsense suppression was at most 0.026. The value for A13G G85A was 0.214. As for U57A C77G, the nonsense suppression was at most 0.026. With G19U G66C G85C, the nonsense suppression is at most 0.026.

Turning to G61C G84A, the nonsense suppression was at most 0.026. For the variant U63A U76C, the nonsense suppression worked out at 0.748.

With G10U C34A U58G U71G C77A, the nonsense suppression was at most 0.026. U55C U57C G86U: the nonsense suppression was at most 0.026.

Turning to G19C A30G C75G, the nonsense suppression is at most 0.026. Consider G6U C75U, for which the nonsense suppression is at most 0.026.

Turning to U2G A31G G69A C80U C81A, the nonsense suppression is at most 0.026. Consider A9U U21C G88U, for which the nonsense suppression was at most 0.026. As for C68G C83A, the nonsense suppression is at most 0.026.

As for G15A A30G G66C, the nonsense suppression is at most 0.026. On to C3U A13G U16A G67A, for which the nonsense suppression is at most 0.026.

Source of the values: the RNAGym collection of RNA variant scans (doi:10.1101/gad.245936.114).
